Assay results published in the RNAGym collection of RNA variant scans (doi:10.1073/pnas.2313332121).
Variants at the background level are over-represented here.

B1: TPR 5TU (parent)
chain: GGAUCUUCUCGAUCUAACAAAAAAGACAAAUCUGCCACAAAGCUUGAGAGCAUCUUCGGAUGCAGAGGCGGCAGCCUUCGGUGGCGCGAUAGCGCCAACGUUCUCAACUAUGACACGCAAAACGCGUGCUCCGUUGAAUGGAGUUUAUCAUG

Variants of: B1
Assay: polymerase ribozyme fitness, log enrichment relative to wild type (log ratio); higher = more active; in vitro selection for triplet polymerase activity
In short: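 Each subunit of a heterodimeric triplet polymerase ribozyme was represented by a PCR-built, transcribed mutant library that underwent triplicate single-round in vitro selection with frozen incubation at −7 °C. Extended constructs were recovered by gel excision, streptavidin-bead capture and RT-PCR, and Illumina sequencing of input and output libraries kept genotypes with ≥10 input reads and ≥1 read per output. Fitness is the logarithm of genotype enrichment relative to wild-type enrichment, from inverse-variance-weighted replicate averages, with a logarithm base of 2.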

First: GGAUCUUCUCGAUCUAACAAAAAAGAGAAAUCUGCCUCAAAGCUUGAGAGCAUCUUCGGAUGCCGAGGCGGCAGCCUUCGGUGGCGCCAUCGCGCCAACGUUCUCAACUAUGACACGCAGAUCGCGUGCUCCGUUGAAUGGAGUUUAGCAUG [C27G A37U A64C G88C A91C A120G A122U U148G]
Second: GGAUCUUCUCGAUCUAACAAAAAAGAAAAAUCUGCCACAAAGCUUGAGAGCAUCUUCGGAUGCAGAGGCGGCAGCCUUCGCUGGCGCGAUAGCGCCAACGUUCUCAACUAUGACACGCAAAACACGUGCUCCGUUGAAUGGAGUUUAUCAUG [C27A G81C G124A]
The “polymerase ribozyme fitness (log ratio)” value of the first is higher: -4.09 for the first, ≤ -4.2 for the second.

GGAUCUUCUCGAUCUAACAAAAAAGAGACAUCUGCCACAAAGCUUGAGAGCAUCUUCGGAUGCAGGGGCGGCAGCCUUCGGUGGCGCGAUAGCGUCAACGUUCUCAACUAUGACACGCAAAACGCGUGCUCCGUUGAAUGGAGUUUAUCAUG [C27G A29C A66G C95U] and GGAUCUUCUCGAUCUAACAAAAAAGAAAAAUCUGCCACAAAGCUAGAGAGCAUCUUGGGUUGCAGAGGAGGCAGCCUUCGGUGGCGUGAUAGUGCCAACGUUCUCAACUAUGACACGCAAAACGCGUGCUCCCUUGAAUGGAGUUUAUCAUG [C27A U45A C57G A60U C69A C87U C93U G133C] cannot be ordered by “polymerase ribozyme fitness (log ratio)” value: ≤ -4.2 for the first, ≤ -4.2 for the second.

GGAUCUUCUCGAUCUAACAAAAAAGAAAAAUCUGCCACAAAGCUUGAGAGCAUCUUCGGAUACAGAGGCCGCAGCCUUCGGUGGCGCGAUAGCCCCAACGUUCUCAACUAUGACACGCAAAACGCGUGCUCCGUUGAAUGGAGUUUAUCAUG [C27A G62A G70C G94C] and GGAUCUUCUCGAUCUAACAAAAAAGAAAAACCUGCCAUUAAGCUUGAGAGCAUCUUCGGAUGCAGAGGUGGCAGCCUUCGGUGGAGCGAUAGCGCCAACGUUCUCAACUAUGACACGCAAAACGCGUGCUCCGUUGAAUGGAGUUUAUCAUG [C27A U31C C38U A39U C69U C85A] cannot be ordered by “polymerase ribozyme fitness (log ratio)” value: ≤ -4.2 for the first, ≤ -4.2 for the second.

GGAUCUUCUCGAUCUAACAAAAAAGAAAAAUCUGCCACAAACCUUGAGAGCAUCUUCGGAUGCAGAGGCGGCAGCCUUCGGUGGCGCGAUAGCGCCAAUGUUCUCAACUAUGUCACGCAAAACGCGUGCUCCGUUGAAUGGAGUUGAUCAUG [C27A G42C C99U A113U U146G] and GGAUCUUCUCGAUCUAACAAAAAAGAAAAAUCUACCACAAAGCUUGAGAGCAUCUUCGGGUGCAGAGGCGGCAGCCUUCGGUGGCGCGAUAGCGACAACGUUCUCAUCUAUGACACGCAAAACGCGUGCACCGUUGAAUGGAGUUUAUCAUG [C27A G34A A60G C95A A107U U130A] cannot be ordered by “polymerase ribozyme fitness (log ratio)” value: ≤ -4.2 for the first, ≤ -4.2 for the second.

GGAUCUUCUCGAUCUAACAAAAAAGAGACAUCUGCCACAACACUUGAGAGCAUAUACGGAUGCAGAGGCGGCAGCCUUCGGUGGCGCGAUUGCGCCAACGUUCUCAACUAUGACACGCAAAACGCGUGCUCCGUUGAAUGAAGUUUAUCAUG [C27G A29C A41C G42A C54A U56A A91U G141A] and GGAUCUUCUCGAUCUAACAAAAAAGAGAACUCUGCCACAAAGCUUGAGAGCAUCUUCUGAUGCAGAGGCGGCAGCCUUCGGUGGCGCGAUAGCGCUAACGUUCUCAACUAUGACAGGCAAAACGCGUGCUCCGUUGAAUGGAGUUUAUCAUG [C27G A30C G58U C96U C116G] cannot be ordered by “polymerase ribozyme fitness (log ratio)” value: ≤ -4.2 for the first, ≤ -4.2 for the second.

GGAUCUUCUCGAUCUAACAAAAAAGAAAAAUCUGCCACAAAGCUUGAGAGCAUCUUCGGAUGCAUAGGCGGCAGCCUUCGGUGGCGCGAUAGCGCCAACGUUCUCAACUAUGACACGCAAAACGCGUGCUCCGUUGAAUGGAGUUGAUCAUG [C27A G65U U146G] and GGAUCUUCUCGAUCUAACAAAAAAGAAAAAUCUGCCACAAAGCUUGAGAGCAUCUUCGGAUGCAGAGGCGGCAGCCUUCGGUGGCGCGAUAGCGUCAGCGUUCUCAACUAUGACACGCAAAACGCGUGCUCCGUUGAAUGGAGUUUAUCAUG [C27A C95U A98G] cannot be ordered by “polymerase ribozyme fitness (log ratio)” value: ≤ -4.2 for the first, ≤ -4.2 for the second.

GGAUCUUCUCGAUCUAACAAAAAAGAAAAAUCUGCCACAAAGCUUGAGAGCAUCUUCGGAUGCAGAGGCGGCAGCCUUCGGUGUCGCGAUAGCGCCAACGUUCUGAACUAUGAAACGCAAAACGCGUGCUCCGUUGAAUGGAGUUUAUCAUG [C27A G84U C105G C114A] and GGAUCUUCUCGAUCUAACAAAAAAGAGAAAUCUGCCACGAAGCUUGAGAGCAUCUUCGGAUGCAGAGGCGGCAGCCUUCGGUGGCGCGAUAGGGCCAACGUUCUCAACUAUAACACGCAAAACGCGUGGUCCGUUGAAUGGAGUUUAUCAUG [C27G A39G C93G G112A C129G] cannot be ordered by “polymerase ribozyme fitness (log ratio)” value: ≤ -4.2 for the first, ≤ -4.2 for the second.

GGAUCUUCUCGAUCUAACAAAAAAGAAAAAUCUGCCACAAAGCAUGAGAGCAUCUUCGGAUGCAGAGGCGGCAGCCUUCGGUGGAGCGAUAGCGCCAACGUUCUCACCUAUGACACGCAAAACGCGUGCUCCGUUGAAUGGAGUUUACCAUG [C27A U44A C85A A107C U148C] and GGAUCUUCUCGAUCUAACAAAAAAGAGACAUCUGCCACAAAGCUUGCGAGCAUCUUCGGAUGCAGAGACGGCAGCCUUCGGUGGCGGGAUAGCGCCAACGUUCUCAACUAUGACACGCAAAAUGCGUGCUCCGUUGAAUGGAGUUUAUCAUG [C27G A29C A47C G68A C87G C123U] cannot be ordered by “polymerase ribozyme fitness (log ratio)” value: ≤ -4.2 for the first, ≤ -4.2 for the second.

GGAUCUUCUCGAUCUAACAAAAAAGAAAAAUCUGCCACAAAGCGUGAGAUCAUCUUCGGAUGCAAAGGCGGCAGCCUUCGGUGGCUCGAUAGCGCAAACGUUCUCAACUAUGACACGCAAAACGCGUGCUCCGUUGAAUGGAGUUUAUCAUG [C27A U44G G50U G65A G86U C96A] and GGAUCUUCUCGAUCUAACAAAAAAGAAAAAUCUGCCACAAAGCUUGAGAGCAUCUUCGGAUGCAGAGGCGGCAGCCUUCGGUGGCGCGAUAGCGACAACGUUCUCAACUAUGACACGCAAAGCGCGUGCUCCGUUGAAUGGAGUUUAUCAUG [C27A C95A A122G] cannot be ordered by “polymerase ribozyme fitness (log ratio)” value: ≤ -4.2 for the first, ≤ -4.2 for the second.

For GGAUCUUCUCGAUCUAACAAAAAAGAAAAAUCUGCCACAAAGCUUGAGAGCAUCUUCGGAAGCAAAGGCGGCAGUCUUCGGUGGCGCGAUAGCGCCAACGUUCUCUACUAUGACACGCAAAACGCGAGCUCCGUUGAAUGGAGUUUAUCAUG [C27A U61A G65A C75U A106U U127A], the “polymerase ribozyme fitness (log ratio)” value was ≤ -4.2.
